From the supplement of paper PMC10037445
Whole data set: some 2,900 compounds, median “NF-kB SEAP reporter activity, fold change vs agonist alone” near 0.99, cut for the highest 2% near 2.6. The list shows a part of the results.

Experiments:
[1] = tested on: RAW-Dual; assay: NF-kB SEAP reporter activity, fold change vs agonist alone; cytotoxicity flag (confluency mask): not cytotoxic; higher = enhanced NF-kB activity
In short: (§1)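 Cytotoxic wells were those whose IncuCyte confluency was below 70% of agonist controls in both mask sets. The cells were RAW-Dual macrophages at 50,000 cells/well in DMEM on 384-well plates, dosed with 50 nL of library stock by pin tool, stimulated with a PRR agonist 1 h later, and kept at 37 °C, 5% CO2 for 20 hours. IRF and NF-κB reporter activity, as fold change over agonist-alone wells, came from supernatant read by QuantiLuc luminescence and QuantiBlue absorbance, respectively.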

[2] = tested on: RAW-Dual; assay: NF-kB SEAP reporter activity, fold change vs agonist alone; higher = enhanced NF-kB activity; settings: cytotoxicity flag (confluency mask): not cytotoxic
In short: as §1

[3] = agonist: ODN 1826 (TLR9) 0.5 ug/mL
[4] = agonist: Pam2CSK4 (TLR2/6) 0.1 ug/mL
[5] = agonist: Pam3CSK4 (TLR2/1) 0.1 ug/mL
[6] = library stock concentration (final ~1000-fold dilution): 10 mM, agonist: Imiquimod (TLR7) […]
[7] = library stock concentration (final ~1000-fold dilution): 10 mM, agonist: MPLA (TLR4) […]

## CS(=O)(=O)N1CCN(Cc2cc3nc(-c4cccc5[nH]ncc45)nc(N4CCOCC4)c3s2)CC1 (library stock concentration (final ~1000-fold dilution): 10 mM)
[1]; agonist: LPS (TLR4) 0.1 ug/mL
  NF-kB SEAP reporter activity: 1.87
[1]; [3]
  NF-kB SEAP reporter activity: 0.247
[1]; [4]
  NF-kB SEAP reporter activity: 1.02
[1]; [5]
  NF-kB SEAP reporter activity: 0.72

## CS(=O)(=O)N1CCN(Cc2cc3nc(-c4cccc5[nH]ncc45)nc(N4CCOCC4)c3s2)CC1
[2]; [6]
  NF-kB SEAP reporter activity: 1.77
[2]; [7]
  NF-kB SEAP reporter activity: 1.75

## COc1ccccc1N1CCN(CCN2C(=O)CC3(CCCC3)CC2=O)CC1.Cl.Cl (library stock concentration (final ~1000-fold dilution): 10 mM)
[1]; agonist: LPS (TLR4) 0.1 ug/mL
  NF-kB SEAP reporter activity: 1.35
[1]; [3]
  NF-kB SEAP reporter activity: 1.05
[1]; [4]
  NF-kB SEAP reporter activity: 0.87
[1]; [5]
  NF-kB SEAP reporter activity: 1.26

## COc1ccccc1N1CCN(CCN2C(=O)CC3(CCCC3)CC2=O)CC1.Cl.Cl
[2]; [6]
  NF-kB SEAP reporter activity: 1.09
[2]; [7]
  NF-kB SEAP reporter activity: 1

## O=C(O)Cn1c2c(c3cc(F)ccc31)CN(C(=O)c1cccc3ccccc13)CC2 (library stock concentration (final ~1000-fold dilution): 10 mM)
[1]; agonist: LPS (TLR4) 0.1 ug/mL
  NF-kB SEAP reporter activity: 0.974
[1]; [3]
  NF-kB SEAP reporter activity: 0.982
[1]; [4]
  NF-kB SEAP reporter activity: 1.03
[1]; [5]
  NF-kB SEAP reporter activity: 0.899

## O=C(O)Cn1c2c(c3cc(F)ccc31)CN(C(=O)c1cccc3ccccc13)CC2
[2]; [6]
  NF-kB SEAP reporter activity: 1.15
[2]; [7]
  NF-kB SEAP reporter activity: 1.09

## Nc1nc(F)nc2c1ncn2C1OC(CO)C(O)C1O (stereo not given) (library stock concentration (final ~1000-fold dilution): 10 mM)
[1]; agonist: LPS (TLR4) 0.1 ug/mL
  NF-kB SEAP reporter activity: 1.1
[1]; [3]
  NF-kB SEAP reporter activity: 1.03
[1]; [4]
  NF-kB SEAP reporter activity: 1.06
[1]; [5]
  NF-kB SEAP reporter activity: 1.22

## Nc1nc(F)nc2c1ncn2C1OC(CO)C(O)C1O (stereo not given)
[2]; [6]
  NF-kB SEAP reporter activity: 0.92
[2]; [7]
  NF-kB SEAP reporter activity: 0.844

## CCN(CCO)CCCC(C)Nc1ccnc2cc(Cl)ccc12.O=S(=O)(O)O (stereo not given) (library stock concentration (final ~1000-fold dilution): 10 mM water)
[1]; agonist: LPS (TLR4) 0.1 ug/mL
  NF-kB SEAP reporter activity: 1.41
[1]; [3]
  NF-kB SEAP reporter activity: 0.252
[1]; [4]
  NF-kB SEAP reporter activity: 0.864
[1]; [5]
  NF-kB SEAP reporter activity: 0.763

## CCN(CCO)CCCC(C)Nc1ccnc2cc(Cl)ccc12.O=S(=O)(O)O (stereo not given)
[2]; library stock concentration (final ~1000-fold dilution): 10 mM water, agonist: Imiquimod (TLR7) […]
  NF-kB SEAP reporter activity: 0.389
[2]; library stock concentration (final ~1000-fold dilution): 10 mM water, agonist: MPLA (TLR4) […]
  NF-kB SEAP reporter activity: 1.3

## CC(=O)OC12COC1CC(O)C1(C)C(=O)C(O)C3=C(C)C(OC(=O)C(O)C(NC(=O)OC(C)(C)C)c4ccccc4)CC(O)(C(OC(=O)c4ccccc4)C21)C3(C)C.O.O.O (stereo not given) (library stock concentration (final ~1000-fold dilution): 10 mM)
[1]; agonist: LPS (TLR4) 0.1 ug/mL
  NF-kB SEAP reporter activity: 1.26
[1]; [3]
  NF-kB SEAP reporter activity: 0.91
[1]; [4]
  NF-kB SEAP reporter activity: 0.697
[1]; [5]
  NF-kB SEAP reporter activity: 0.713

## CC(=O)OC12COC1CC(O)C1(C)C(=O)C(O)C3=C(C)C(OC(=O)C(O)C(NC(=O)OC(C)(C)C)c4ccccc4)CC(O)(C(OC(=O)c4ccccc4)C21)C3(C)C.O.O.O (stereo not given)
[2]; [6]
  NF-kB SEAP reporter activity: 1.07
[2]; [7]
  NF-kB SEAP reporter activity: 1.23

## COc1cccc2cc(-c3nc(C4CCC(C(=O)O)CC4)n4ncnc(N)c34)[nH]c12 (stereo not given) (library stock concentration (final ~1000-fold dilution): 10 mM)
[1]; agonist: LPS (TLR4) 0.1 ug/mL
  NF-kB SEAP reporter activity: 1.48
[1]; [3]
  NF-kB SEAP reporter activity: 0.418
[1]; [4]
  NF-kB SEAP reporter activity: 0.513
[1]; [5]
  NF-kB SEAP reporter activity: 0.584

## COc1cccc2cc(-c3nc(C4CCC(C(=O)O)CC4)n4ncnc(N)c34)[nH]c12 (stereo not given)
[2]; [6]
  NF-kB SEAP reporter activity: 1.23
[2]; [7]
  NF-kB SEAP reporter activity: 1.25

## Nc1nc2cc(-c3ccc4ncc(C(=O)N5CCOCC5)n4c3)ccc2o1 (library stock concentration (final ~1000-fold dilution): 10 mM)
[1]; agonist: LPS (TLR4) 0.1 ug/mL
  NF-kB SEAP reporter activity: 0.841
[1]; [3]
  NF-kB SEAP reporter activity: 1.02
[1]; [4]
  NF-kB SEAP reporter activity: 0.774
[1]; [5]
  NF-kB SEAP reporter activity: 0.811

## Nc1nc2cc(-c3ccc4ncc(C(=O)N5CCOCC5)n4c3)ccc2o1
[2]; [6]
  NF-kB SEAP reporter activity: 1.09
[2]; [7]
  NF-kB SEAP reporter activity: 1.09

## CCC(C(=O)O)c1ccc(N2Cc3ccccc3C2=O)cc1 (stereo not given)
[2]; [7]
  NF-kB SEAP reporter activity: 1.06

## CCC(C(=O)O)c1ccc(N2Cc3ccccc3C2=O)cc1 (stereo not given) (library stock concentration (final ~1000-fold dilution): 10 mM)
[1]; agonist: LPS (TLR4) 0.1 ug/mL
  NF-kB SEAP reporter activity: 1.46
[1]; [3]
  NF-kB SEAP reporter activity: 0.943
[1]; [4]
  NF-kB SEAP reporter activity: 1.23
[1]; [5]
  NF-kB SEAP reporter activity: 1.1

## CC1(C)OC2COC3(COS(N)(=O)=O)OC(C)(C)OC3C2O1 (stereo not given)
[2]; [6]
  NF-kB SEAP reporter activity: 0.928
[2]; [7]
  NF-kB SEAP reporter activity: 0.824

## CC1(C)OC2COC3(COS(N)(=O)=O)OC(C)(C)OC3C2O1 (stereo not given) (library stock concentration (final ~1000-fold dilution): 10 mM)
[1]; agonist: LPS (TLR4) 0.1 ug/mL
  NF-kB SEAP reporter activity: 0.898
[1]; [3]
  NF-kB SEAP reporter activity: 1.01
[1]; [4]
  NF-kB SEAP reporter activity: 0.955
[1]; [5]
  NF-kB SEAP reporter activity: 1.12

## Cc1cccc(C)c1N(CC(=O)Nc1ccc(-c2ncon2)cc1)C(=O)C1CCS(=O)(=O)CC1
[2]; [6]
  NF-kB SEAP reporter activity: 0.957
[2]; [7]
  NF-kB SEAP reporter activity: 1.04

## Cc1cccc(C)c1N(CC(=O)Nc1ccc(-c2ncon2)cc1)C(=O)C1CCS(=O)(=O)CC1 (library stock concentration (final ~1000-fold dilution): 10 mM)
[1]; agonist: LPS (TLR4) 0.1 ug/mL
  NF-kB SEAP reporter activity: 1.13
[1]; [3]
  NF-kB SEAP reporter activity: 1.03
[1]; [4]
  NF-kB SEAP reporter activity: 1.06
[1]; [5]
  NF-kB SEAP reporter activity: 1.02

## COc1ccc(/C=C\c2cc(OC)c(OC)c(OC)c2)cc1O
[2]; [6]
  NF-kB SEAP reporter activity: 1.63
[2]; [7]
  NF-kB SEAP reporter activity: 2.07

## COc1ccc(/C=C\c2cc(OC)c(OC)c(OC)c2)cc1O (library stock concentration (final ~1000-fold dilution): 10 mM)
[1]; agonist: LPS (TLR4) 0.1 ug/mL
  NF-kB SEAP reporter activity: 4.68
[1]; [3]
  NF-kB SEAP reporter activity: 2.84
[1]; [4]
  NF-kB SEAP reporter activity: 1.69
[1]; [5]
  NF-kB SEAP reporter activity: 2.62

## O=C(c1ccccc1)C(O)O
[2]; [7]
  NF-kB SEAP reporter activity: 1.19

## O=C(c1ccccc1)C(O)O (library stock concentration (final ~1000-fold dilution): 10 mM)
[1]; agonist: LPS (TLR4) 0.1 ug/mL
  NF-kB SEAP reporter activity: 1.12
[1]; [3]
  NF-kB SEAP reporter activity: 1.04
[1]; [4]
  NF-kB SEAP reporter activity: 1.14
[1]; [5]
  NF-kB SEAP reporter activity: 1.07

## C=CC(=O)Nc1ccc2ncnc(Nc3ccc(OCc4cccc(F)c4)c(Cl)c3)c2c1.Cc1ccc(S(=O)(=O)O)cc1 (library stock concentration (final ~1000-fold dilution): 10 mM)
[1]; agonist: LPS (TLR4) 0.1 ug/mL
  NF-kB SEAP reporter activity: 0.275
[1]; [3]
  NF-kB SEAP reporter activity: 0.575
[1]; [4]
  NF-kB SEAP reporter activity: 0.254
[1]; [5]
  NF-kB SEAP reporter activity: 0.377
